Experimental data published in the supplement of paper PMC12217912.
The other results are listed elsewhere or left out. The full chains were built here from the parent and the listed change. Values near 0.05 are background.

B1: TEV protease; numbered along this chain (parent)
chain: MGESLFKGPRDYNPISSSICHLTNESDGHTTSLYGIGFGPFIITNKHLFRRNNGTLVVQSLHGVFKVKDTTTLQQHLVDGRDMIIIRMPKDFPPFPQKLKFREPQREERICLVTTNFQTKSMSSMVSDTSCTFPSGDGIFWKHWIQTKDGQCGSPLVSTRDGFIVGIHSASNFTNTNNYFTSVPKNFMELLTNQEAQQWVSGWRLNADSVLWGGHKVFMVKPEEPFQPVKEATQL

Variants of: B1
Assay: raw area under fraction-flipped curve 0-4 h after induction (AUC4h, not background-subtracted), DNA-recorder readout of cleavage of the substrate (dimensionless); higher = more cleavage of the substrate by the protease variant
Settings: temperature: 34 °C; time window: 0-4 h after rhamnose induction
Protocol: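 In vivo DNA recorder in E. coli TOP10(DE3) ΔrhaA at 34 °C. Each TEVp single-site mutant (parent TEVp 0) is paired with a single-site variant of the 7-mer TEVs (canonical ENLYFQ|S). The substrate sits between flexible linkers in a Bxb1-sfGFP-TEVs-SsrA fusion, so cleavage stabilises Bxb1 and speeds flipping of a recombination array, read by NGS. The value is the raw area under the fraction-flipped curve over 0-4 h after rhamnose induction (AUC4h), with ≥20 reads per time point. It is not background-subtracted; inactive controls average about 0.047.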
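Further: Bxb1 expression induced with 0.2% (w/v) L-rhamnose at OD600 near 0.5, cultures sampled hourly, flipped fraction per protease–substrate barcode pair counted by paired-end Illumina sequencing.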

| Variant | area with substrate ENAYFQS | area with substrate ENCYFQS | area with substrate ENDYFQS | area with substrate ENEYFQS | area with substrate ENFYFQS | area with substrate ENGYFQS | area with substrate ENHYFQS | area with substrate ENIYFQS | area with substrate ENKYFQS | area with substrate ENNYFQS | area with substrate ENPYFQS | area with substrate ENSYFQS | area with substrate ENTYFQS | area with substrate ENVYFQS | area with substrate ENYYFQS | area with substrate ENQYFQS | area with substrate ENRYFQS | area with substrate ENWYFQS | area with substrate ENMYFQS |
| --- | --- | --- | --- | --- | --- | --- | --- | --- | --- | --- | --- | --- | --- | --- | --- | --- | --- | --- | --- |
| A196F | 0.0562 | 0.0777 | 0.0685 | 0.058 | 0.0343 | 0.0656 | 0.0468 | 0.116 | 0.0827 | 0.0511 | 0.0403 | 0.0674 | 0.0577 | 0.0716 | 0.0558 | – | – | – | – |
| A196W | 0.0615 | – | 0.0566 | 0.0698 | – | 0.0963 | – | 0.0991 | 0.0417 | 0.0591 | – | – | – | – | – | 0.0675 | 0.0503 | 0.0642 | – |
| Q197V | 0.0532 | 0.0604 | 0.0623 | 0.0654 | 0.0536 | 0.0718 | 0.0554 | 0.124 | 0.0692 | 0.0821 | 0.0395 | 0.0594 | 0.0615 | 0.0748 | 0.0491 | 0.062 | – | 0.0048 | 0.0839 |
| Q198A | 0.0587 | 0.0687 | – | – | 0.0498 | 0.0779 | – | – | – | 0.07 | 0.0381 | 0.0607 | 0.0533 | 0.0875 | 0.0591 | – | 0.0591 | – | – |
| Q198L | 0.0467 | 0.0744 | 0.0715 | – | 0.0502 | 0.0623 | 0.0614 | 0.0899 | 0.0628 | 0.0676 | 0.0503 | – | – | 0.0662 | – | 0.058 | 0.0607 | 0.0539 | 0.0736 |
| Q198N | 0.0528 | 0.057 | 0.0651 | 0.0513 | 0.0532 | 0.0653 | – | – | – | 0.067 | 0.0596 | 0.0581 | – | – | – | 0.0408 | 0.0454 | – | – |
| Q198T | 0.056 | – | 0.0573 | 0.0383 | 0.0576 | – | – | 0.107 | 0.0521 | – | – | 0.0584 | – | 0.0719 | 0.0589 | 0.0309 | 0.0588 | – | 0.0614 |
| W199F | 0.0656 | 0.0625 | 0.0576 | – | – | 0.0435 | – | – | – | 0.0581 | 0.0682 | 0.0539 | 0.0578 | 0.0561 | 0.0666 | 0.0573 | 0.0632 | – | – |
| W199P | 0.0595 | 0.0904 | 0.0582 | 0.056 | 0.0612 | 0.0509 | 0.0675 | 0.0753 | – | 0.0641 | – | 0.0687 | 0.0632 | 0.0687 | 0.0613 | 0.0858 | 0.0539 | – | 0.0541 |
| S201G | 0.0608 | 0.0561 | 0.0485 | 0.0636 | 0.0381 | 0.0679 | 0.0727 | – | 0.0588 | 0.0534 | 0.0583 | 0.0616 | 0.073 | 0.073 | 0.0682 | 0.0643 | 0.0692 | – | – |
| G202R | 0.058 | – | 0.069 | 0.0567 | – | 0.0648 | – | 0.0708 | 0.0538 | 0.0502 | 0.07 | 0.0618 | 0.0638 | 0.0646 | 0.0618 | 0.052 | 0.0722 | – | – |
| W203V | 0.0563 | 0.0537 | 0.063 | 0.0548 | 0.0617 | 0.0746 | 0.0554 | 0.0683 | 0.0588 | 0.0647 | 0.0562 | 0.0517 | 0.0597 | 0.0545 | 0.0592 | 0.0609 | 0.0653 | – | 0.054 |
